Laboratory results: PubChem BioAssay AID504832 (National Center for Advancing Translational Sciences (NCATS), 2011)
The whole screen tested about 310,000 compounds, of which about 18,000 (5.8%) were called active. This list was built around the results that the source calls inconclusive (neither active nor inactive); the mix of calls is not that of the screen. Calls come from the whole dose curve; as a rule, active = well fitted inhibition curve with a large enough effect; inconclusive = small, poorly fitted or top-dose-only effect, or another doubt; inactive = no such curve, though single readings can be large or run the other way. Potencies of inconclusive entries are left out as doubtful fits.

Experiment: Primary qHTS for delayed death inhibitors of the malarial parasite plastid, 48 hour incubation
Conditions: P. falciparum luciferase growth in erythrocytes; series mostly up to 28.7 µM; activity change, negative = inhibition: at the top concentration
Outline: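 First compound was added to culture medium, then infected red cells at 0.1% parasitemia and 2% hematocrit (final). After incubation at 37 C under 5% CO2, luciferase detection reagent was dispensed and light output recorded.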
% is set by controls: 0 for no effect and ±100 for the full control effect; potency is the fitted concentration of half-maximal effect; tags give direction and shape of the fitted curve.

Row | SMILES | Potency | activity change, negative = inhibition
1 | CS(=O)(=O)N(CC(=O)N1CCN(Cc2ccccc2)CC1)c1cccc([N+](=O)[O-])c1 | inconclusive [inhibitor, partial curve, poor fit] | 
2 | COc1ccc(NC(=O)[C@@H](NC(N)=O)C(C)C)cc1Cl |  | inactive: 0.189%
3 | Cc1ccc(NC(=O)CCc2c(C)nn(-c3ccc(N4CCOCC4)nn3)c2C)cc1F |  | inactive: 1.78%
4 | COc1ccc(N(C(=O)c2snc(C(N)=O)c2N)C(C(=O)NC2CCCC2)c2ccco2)cc1 (centres undefined) | inconclusive [inhibitor, partial curve] | 
5 | O=C(Nc1cc(Cl)ccc1N1CCOCC1)c1ccc2c(c1)OCCO2 | inconclusive [inhibitor, partial curve, poor fit] | 
6 | CN(c1c(C#N)c(C(F)(F)F)nn1C)N(S(C)(=O)=O)S(C)(=O)=O | inconclusive [inhibitor, single point] | 
7 | Cc1ncc([N+](=O)[O-])n1CCOC(=O)c1ccc(Cl)cc1Cl |  | inactive: 23.3%
8 | CCC(C)NC(=O)CCSCCC(=O)NC(C)CC (centres undefined) | inconclusive [inhibitor, partial curve, poor fit] | 
9 | CC(C)(C)OC(=O)NCCCC[C@@H](C(=O)NCCCCCCCCCCC(=O)N1CCN(C(=O)OC(C)(C)C)CC1)n1cc(CCCC(=O)O)nn1 | active: 7.38 µM | 
10 | Cc1cccc(NC(=S)NCCc2c[nH]c3ccccc23)c1 |  | inactive: -4.81%
11 | COc1cc(NCc2ccc3nc(N)nc(N)c3c2C)cc(OC)c1OC | active: 0.006 µM | 
12 | O=C(/C=C/NNC(=O)c1ccc(Cl)cc1)c1ccccc1 |  | inactive: -30.4%
13 | CCN1CCN(C(=O)c2cc(COc3ccc(F)cc3F)on2)[C@@H](C)C1=O |  | inactive: 0%
14 | Cc1ccc(N2CN=c3s/c(=C\c4cccnc4)c(=O)n3C2)cc1 | inconclusive [inhibitor, partial curve, poor fit] | 
15 | CCn1cc(CN2CCC(C(=O)Nc3cccc(-c4cccc(F)c4)c3)CC2)cn1 | inconclusive [inhibitor, single point] | 
16 | CCOC(=O)Cn1nc(-c2ccc(F)cc2)cc(Cc2ccccc2)c1=O | inconclusive [inhibitor, single point] | 
17 | COc1ccc(CCNC(=O)c2cccc(S(=O)(=O)N3CCc4ccccc4C3)c2)cc1 | active: 9.28 µM | 
18 | Cc1ccc(S(=O)(=O)N[C@@H](Cc2ccccc2)C(=O)CCl)cc1 |  | inactive: -13.8%
19 | COc1cc(C(=O)N2CCCCCCC2)ccc1OC1CCN(C(C)=O)CC1 | inconclusive [inhibitor, single point] | 
20 | Cc1ccc(C2(C)NC(=O)N(CC(=O)N3CCN(S(=O)(=O)c4cccs4)CC3)C2=O)cc1 (centres undefined) | inconclusive [inhibitor, single point] | 
21 | O=C1c2ccccc2C(=O)N1CC(=O)N1c2ccccc2CCc2ccccc21 | inconclusive [inhibitor, single point] | 
22 | O=C(N/N=C/c1ccco1)c1cc(-c2ccc(Br)s2)[nH]n1 | inconclusive [inhibitor, partial curve] | 
23 | CN(C)c1ccccc1C(=O)c1ccccc1N(C)C |  | inactive: 67%
24 | COc1cccc(NC(=O)NC(=O)c2c(C)cc(Cl)nc2Cl)c1 | inconclusive [inhibitor, partial curve, poor fit] | 
25 | CC(=O)O[C@]1(C(C)=O)CCC2C3CCC4=CC(=O)CCC4(C)C3(F)C(O)CC21C (some centres undefined) |  | inactive: -26%

Row | SMILES | Potency | activity change, negative = inhibition
26 | O=C(Nc1cnc2sc3c(n2c1=O)CCCC3)c1ccc(F)cc1 |  | inactive: 40.3%
27 | CCOc1ccc(CSCCNC(=S)Nc2ccc(OC)cc2)cc1 | active: 8.28 µM | 
28 | Cc1noc(C)c1COc1ccc(C(=O)OCC(=O)NC23CC4CC(CC(C4)C2)C3)cc1 | inconclusive [inhibitor, partial curve] | 
29 | Cc1cccc(NS(=O)(=O)c2cccc(C(=O)N3CCCCCCC3)c2)c1 | inconclusive [inhibitor, single point] | 
30 | Cc1cc([N+](=O)[O-])nn1CC(=O)N1CCN(Cc2ccccc2)CC1 | inconclusive [inhibitor, full curve, poor fit] | 
31 | COc1ccc(C2NC(=O)NC(C)=C2C(=O)OCC2CCCCC2)cc1OC (centres undefined) |  | inactive: -18.1%
32 | COc1cc(OC)c(OC)cc1CNC(=O)c1cc(=O)[nH]c2ccccc12 |  | inactive: 4%
33 | Cc1ccc(S(=O)(=O)N2CCC(=O)N(C(COCc3cccc(Cl)c3)C(C)C)CC2)cc1 (centres undefined) | active: 14.7 µM | 
34 | N#CC1=C(N)OC2=C(CN(Cc3ccccc3)C/C2=C\c2cccnc2)C1c1cccnc1 (centres undefined) | inconclusive [inhibitor, single point] | 
35 | Cc1ccc(NC(=O)C(C)N2C(=O)c3ccccc3S2(=O)=O)cc1Cl (centres undefined) |  | inactive: 3.39%
36 | Cc1ccc(-n2c(Cc3cccn3C)nnc2SCC(=O)NCc2ccc3c(c2)OCO3)cc1 | inconclusive [inhibitor, partial curve] | 
37 | COc1ccc(Oc2ncccc2[N+](=O)[O-])cc1 | inconclusive [inhibitor, partial curve] | 
38 | COc1ccc(/C(C)=N/NC(=O)CNC(=O)c2ccncc2)c(OC)c1 |  | inactive: 16%
39 | Cc1ccc(-c2nc3c(c(=O)c4ccccc4n3C)c(=O)n2-c2ccccc2)cc1 |  | inactive: -4.04%
40 | CCN(CC)c1ncnc2scc(C3COc4ccccc4O3)c12 (centres undefined) | active: 8.28 µM | 
41 | CCC(=O)N1CCc2nc(-c3ccccc3)sc2C1 |  | inactive: 2.91%
42 | CN(C(=O)CN1C(=O)NC(C)(CCc2ccccc2)C1=O)c1ccccc1 (centres undefined) |  | inactive: -15.5%
43 | CCn1c2ccccc2c2cc(/C=N/O)ccc21 |  | inactive: 1.46%
44 | CCCc1nnc(NC(=O)CCC(=O)N2CCC(Cc3ccccc3)CC2)s1 |  | inactive: 2%
45 | COc1ccc(NC(=O)CN(c2ccc(F)cc2)S(=O)(=O)c2ccccc2)c(OC)c1 |  | inactive: 0%
46 | O=C(Cc1cccc2ccccc12)Nc1nc2ccccc2[nH]1 | inconclusive [inhibitor, partial curve] | 
47 | Cc1ccc(S(=O)(=O)N2CCN(C(=O)CCc3c[nH]c4ccccc34)CC2)c(C)c1 | inconclusive [inhibitor, single point] | 
48 | Cc1cc(C)c2c(n1)nn1c(C)c(CCC(=O)NCc3ccco3)c(C)nc21 | inconclusive [inhibitor, partial curve, poor fit] | 
49 | Cc1noc(C)c1COc1cccc(C(=O)OC(C)C#N)c1 (centres undefined) | inconclusive [inhibitor, partial curve] | 
50 | Cc1ccc(NC(=O)C(C)N2C(=O)c3ccccc3C2=O)cc1C (centres undefined) |  | inactive: 11.2%

Row | SMILES | Potency | activity change, negative = inhibition
51 | COc1ccc(C(CCNC(C)c2ccccc2)C(C)C)cc1 (centres undefined) | active: 9.28 µM | 
52 | Cc1nc2ccccc2c(=O)n1-c1ccc(NS(=O)(=O)c2cc(F)ccc2F)cc1 | inconclusive [inhibitor, partial curve, poor fit] | 
53 | Cc1c(C(=O)Nc2ccccc2)cc(-c2ccccc2)n1CCCN1CCOCC1 | inconclusive [inhibitor, partial curve, poor fit] | 
54 | CCC1CN(C(=O)N2CCC(C(=O)NCc3ccc(F)cc3)CC2)c2ccccc2O1 (centres undefined) | inconclusive [inhibitor, partial curve, poor fit] | 
55 | O=C1CCC/C1=C/Nc1ccc2c(c1)OCO2 | inconclusive [inhibitor, single point] | 
56 | Cc1cccc(NS(=O)(=O)c2c(C)nc3scc(C)n3c2=O)c1 | inconclusive [inhibitor, single point] | 
57 | O=C(CCCCCNC(=O)c1ccccc1)N/N=C/c1ccc(F)cc1 | active: 13.1 µM | 
58 | Cc1ccc(CN2CCN(C(=O)C3CCC3)CC2)cc1 | inconclusive [inhibitor, single point] | 
59 | COc1ccc(/C=C/C(=O)OCC(=O)NCCC2=CCCCC2)cc1OC |  | inactive: 3.35%
60 | Cc1nc2nc(-c3ccc(Cl)cc3)[nH]n2c(=O)c1C |  | inactive: 144%
61 | O=[N+]([O-])c1ccc(CNCCc2ccccc2)cc1 |  | inactive: 19.7%
62 | CCOC(=O)c1cccc(NC(=O)CC2Oc3ccccc3NC2=O)c1 (centres undefined) |  | inactive: -7.85%
63 | COc1cc(/C=C2/NC(=O)N(Cc3ccccc3F)C2=O)ccc1O | inconclusive [inhibitor, partial curve, poor fit] | 
64 | CC(C)CC(=O)N1CCN(Cc2ccccc2Br)CC1 | inconclusive [inhibitor, full curve, poor fit] | 
65 | Cc1cc(S(=O)(=O)c2cc3ccc(O)c(C)c3oc2=O)ccc1F |  | inactive: 8.19% [at 0.00184 µM]
66 | O=c1c2ccccc2[nH]c(=S)n1Cc1cccs1 |  | inactive: 7.82%
67 | Cc1ccc(/C=C/S(=O)(=O)NCC(=O)OCC(=O)Nc2ccc(C(=O)N(C)C)cc2)cc1 |  | inactive: 23.5%
68 | Nc1c(N(Cc2ccccc2)C(=O)COc2ccc(F)cc2)c(=O)[nH]c(=O)n1Cc1ccccc1 |  | inactive: -23.1%
69 | CCN1CCN(c2ccc(S(=O)(=O)N3CCCCC3)cc2NC(=O)c2cccc(C(F)(F)F)c2)CC1 | inconclusive [inhibitor, single point] | 
70 | S=c1[nH]nc(-c2cccs2)n1/N=C/c1cn(-c2ccccc2)nc1-c1ccccc1 | inconclusive [inhibitor, single point] | 
71 | O=C(O)c1ccccc1SC1CC(=O)N(C2CCCCC2)C1=O (centres undefined) |  | inactive: -1.23%
72 | CCOC(=O)c1cc(-c2ccccc2)sc1NC(=O)CC(C)C | inconclusive [inhibitor, full curve, poor fit] | 
73 | CCN1CCN(CCCNC(=O)c2ccc3c(c2)N(Cc2ccc(C)cc2)CCS3)CC1 | active: 16.5 µM | 
74 | COc1ccc(-c2cc(C(=O)Nc3ccc(S(=O)(=O)Nc4onc(C)c4C)cc3)c3ccccc3n2)cc1 | active: 11.7 µM | 
